Data from PubChem BioAssay AID686978 (National Center for Advancing Translational Sciences (NCATS), 2013).
Where “and” joins values, the source holds several entries; their conditions need not be identical. Equal entries are not always repeated. The campaign covered roughly 420,000 compounds. About 64,000 (15%) were called active. Inconclusive means that the source gave no clear call. Such entries were picked first, then a sample of the others. Calls come from the whole dose curve; as a rule, active = well fitted inhibition curve with a large enough effect; inconclusive = small, poorly fitted or top-dose-only effect; inactive = flat fitted curve, though single readings scatter. Potencies of inconclusive entries are doubtful fits and often do not repeat.

Assay: qHTS for Inhibitors of human tyrosyl-DNA phosphodiesterase 1 (TDP1): qHTS in cells in absence of CPT; note: nearly all actives have a fitted effect of over 55% in size
Conditions: DT40 Tdp1-/- hTDP1 cells, no CPT, ATP luminescence, 48 h; activity change, negative = growth inhibition: at 46.2 µM (top of the series) unless noted
Method in brief: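 No-CPT arm: Tdp1-/-;hTDP1 DT40 cells (400/well) plus compounds, incubated ≥48 hr at 37 °C. Readout CellTiter-Glo luminescence.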
% is set by controls: 0 for no effect and ±100 for the full control effect; potency is the fitted concentration of half-maximal effect; tags give direction and shape of the fitted curve.

Row | Compound | Potency | activity change, negative = growth inhibition
1 | Cc1cc(C(=O)N2CCCC(N3CCN(c4ccccc4C)CC3)C2)no1 (stereo not drawn) | inconclusive: 29.1 µM [inhibitor, single point] | –
2 | [O]=[Bi][O]C(=O)[O][Bi]=[O] | inactive | –
3 | CCCCn1nc(C(=O)Nc2nc3c(s2)CCCC3)c2ccccc2c1=O | inconclusive: 20.6 µM [inhibitor, single point] | –
4 | Cc1ccc(C2(C)NC(=O)N(CC(=O)N3CCN(S(=O)(=O)c4ccccc4[N+](=O)[O-])CC3)C2=O)cc1 (stereo not drawn) | inconclusive: 20.6 µM [inhibitor, partial curve] | –
5 | CC1=C(C)CS(=O)N(S(=O)(=O)c2ccccc2)C1 (stereo not drawn) | active: 10.3 µM | –
6 | CCOC(=O)c1ccccc1NC(=O)CSc1nnnn1C1CCCCC1 | inactive | –
7 | COc1ccc(C)cc1NC(=O)Cn1c(=O)n(Cc2nc(C)no2)c(=O)c2ccccc21 | – | inconclusive: -24.7% [inhibitor]
8 | C=CCSc1cc(C)nc2c(-c3ccc(Cl)cc3)c(C)nn12 | inconclusive: 35.5 µM [inhibitor, single point] | –
9 | Clc1cccc(N/N=C(\Cc2nc3ccccc3[nH]2)c2ccccc2)c1 | inconclusive: 20.6 µM [inhibitor, single point] | –
10 | O=[N+]([O-])c1ccc(/C=N\N2CCN(c3ccc(Cl)cc3)CC2)cc1 | inactive | –
11 | COc1ccc(C2=C(c3ccc(OC)c(OC)c3)CN3CCCCC3C2)cc1 (stereo not drawn) | inconclusive: 18.4 µM [inhibitor, single point] | –
12 | CSc1ccccc1C(=O)C1CCCN(S(=O)(=O)c2c(C)noc2C)C1 (stereo not drawn) | inconclusive: 29.1 µM [inhibitor, single point] | –
13 | NC(=O)c1ccc(Oc2ccc(C(N)=O)cc2)cc1 | inactive | –
14 | S=C(N/N=C/c1ccccc1Cl)Nc1cccc(Cl)c1Cl | active: 10.3 µM | –
15 | COc1ccc(CCNC(=O)c2ccc(Cn3c(=O)c4ccccc4n(Cc4cccc(Cl)c4)c3=O)cc2)cc1OC | active: 10.3 µM | –
16 | COc1cccc(N(CC(=O)NCCSCc2ccc(Cl)cc2)S(C)(=O)=O)c1 | inconclusive: 14.6 µM [inhibitor, partial curve, poor fit] | –
17 | O=C(CNc1cccc(S(=O)(=O)N2CCCC2)c1)Nc1ccc(F)cc1F | inconclusive: 29.1 µM [inhibitor, single point] | –
18 | O=c1c2ccccc2nc(N/N=C/c2ccc(O)cc2)n1O | inactive | –
19 | COc1cc(C=O)ccc1Oc1nnnn1-c1ccccc1 | inconclusive: 16.4 µM [inhibitor, single point] | –
20 | O=C(NC(Cc1ccc(F)cc1)C(=O)O)c1ccccc1 (stereo not drawn) | inactive | –
21 | O=C(CSc1ccc(Cl)cc1)N1CCC(c2nc3ccccc3s2)CC1 | inconclusive: 18.4 µM [inhibitor, single point] | –
22 | N#Cc1cccc(N=Cc2c(O)ccc3ccccc23)c1 | inconclusive: 5.8 µM [inhibitor, full curve] | –

Row | Compound | Potency | activity change, negative = growth inhibition
23 | Cc1ccc(NC(=O)C2CCCN2S(=O)(=O)c2cccc3cccnc23)cc1F (stereo not drawn) | inconclusive: 20.6 µM [inhibitor, partial curve, poor fit] | –
24 | COC1=C(N2CCOCC2)C(=O)c2ccccc2C1=O | inconclusive: 18.4 µM [inhibitor, single point] | –
25 | CO/N=C\C(=N\Nc1ccc(OC)cc1)C(=O)c1ccccc1 | inconclusive: 18.4 µM [inhibitor, single point] | –
26 | COc1ccccc1C(=O)NN1C(=O)C2C3C=CC(O3)C2C1=O (stereo not drawn) | inactive | –
27 | COc1ccc(C(C)C)cc1S(=O)(=O)Nc1ccccn1 | inactive | –
28 | CN(Cc1ccco1)C(=O)c1cccc(S(=O)(=O)N2CCN(Cc3ccccc3)CC2)c1 | inconclusive: 23.1 µM [inhibitor, single point] | –
29 | CC(NC(=O)C1CCC(C(C)(C)C)CC1)C(c1ccccc1)N1CCOCC1 (stereo not drawn) | active: 23.1 µM | –
30 | CCOc1ccc(CN2CCc3nc(Nc4ccc5c(c4)OCCO5)ncc3C2)cc1 | inconclusive: 25.9 µM [inhibitor, single point] | –
31 | O=S(=O)(c1ccccc1)N(CC(F)(F)F)c1ccc(C(O)(C(F)(F)F)C(F)(F)F)cc1 | inconclusive: 35.5 µM [inhibitor, single point] and inconclusive: 20.6 µM [inhibitor, single point] | –
32 | CCN1C(=O)[C@H]2[C@@H](c3ccc(OC)cc3)N3C(=O)CN(CC4CC4)C(=O)[C@@]3(C)[C@H]2C1=O | inactive | –
33 | Cc1cccc(-c2noc(CCC(=O)NCCc3ccccc3)n2)c1 | inconclusive: 13 µM [inhibitor, partial curve] | –
34 | COc1ccc(CCNC(=O)C2CCN(S(=O)(=O)N3CCC(C)CC3)CC2)cc1OC | inactive | –
35 | CS(=O)(=O)Nc1ccc(C2=NN(S(C)(=O)=O)C(c3ccc4nccnc4c3)C2)cc1 (stereo not drawn) | inactive | –
36 | COc1cccc(N2CCN(C3CC(=O)N(c4ccc(F)c(Cl)c4)C3=O)CC2)c1 (stereo not drawn) | inactive | –
37 | CCN1C[C@@H]2[C@@H]3C(=O)N(Cc4ccccc4)C(=O)[C@@H]3[C@](Cc3ccccc3)(C1=O)N2C(=O)c1ccc(Cl)c(Cl)c1 | inconclusive: 18.4 µM [inhibitor, single point] | –
38 | CCCCn1c(N)c(N(Cc2ccccc2OC)C(=O)COc2ccccc2C#N)c(=O)[nH]c1=O | inactive | –
39 | COc1ccc(NC(=O)N(C)[C@H]2C[C@H]3c4[nH]c5ccc(-c6ccc(OC)cc6)cc5c4CCN3C[C@H]2[C@H](C)O)cc1 | inconclusive: 5.8 µM [inhibitor, full curve, poor fit] | –
40 | CC(C)c1ccc(NS(=O)(=O)c2ccc3nc(-c4ccccc4)[nH]c3c2)cc1 | inconclusive: 18.4 µM [inhibitor, single point] | –
41 | CCOCCCN(C(=O)c1snc(C(N)=O)c1N)C(C(=O)NC1CCCC1)c1ccc(OC)cc1 (stereo not drawn) | inconclusive: 29.1 µM [inhibitor, single point] | –
42 | CCC(C)c1c(N)n(S(=O)(=O)c2ccc(C)cc2)oc1=O (stereo not drawn) | inconclusive: 29.1 µM [inhibitor, single point] | –
43 | Cc1ccc(NC(=O)c2oc3ccccc3c2NC(=O)c2ccc3c(c2)OCO3)cc1 | inconclusive: 13 µM [inhibitor, partial curve] | –
